Test results from PubChem BioAssay AID1030 (National Center for Advancing Translational Sciences (NCATS), 2008).
The whole screen tested about 220,000 compounds, of which about 16,000 (7.3%) were called active. The shares of active, inactive and inconclusive entries below differ from those in the screen. The call rests on the fitted dose curve; in most records, active means well fitted inhibition curve with a large enough effect (not every such curve was filed as active); inconclusive means small, poorly fitted or top-dose-only effect, or another doubt; inactive means no such curve, though single readings can be large or run the other way. No potency is given beside an inconclusive call; the fits are too rough.

Molecular target: Aldehyde dehydrogenase 1A1 (Homo sapiens) (UniProt P00352)
UniProt P00352, sequence (P00352 whole entry, looked up): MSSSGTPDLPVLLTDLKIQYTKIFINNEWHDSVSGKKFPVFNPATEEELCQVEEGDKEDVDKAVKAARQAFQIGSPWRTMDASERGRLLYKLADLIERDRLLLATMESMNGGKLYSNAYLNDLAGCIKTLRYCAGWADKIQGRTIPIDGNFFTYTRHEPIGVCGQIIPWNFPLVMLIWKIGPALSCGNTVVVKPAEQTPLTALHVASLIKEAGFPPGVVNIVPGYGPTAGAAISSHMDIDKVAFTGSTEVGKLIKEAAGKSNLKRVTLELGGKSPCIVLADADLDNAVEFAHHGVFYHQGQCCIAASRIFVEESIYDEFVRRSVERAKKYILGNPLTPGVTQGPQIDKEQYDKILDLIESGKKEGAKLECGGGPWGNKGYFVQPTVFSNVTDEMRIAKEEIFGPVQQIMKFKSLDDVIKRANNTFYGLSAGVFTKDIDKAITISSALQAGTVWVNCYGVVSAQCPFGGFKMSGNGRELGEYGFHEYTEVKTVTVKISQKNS
Assay: qHTS Assay for Inhibitors of Aldehyde Dehydrogenase 1 (ALDH1A1)
Conditions: Purified ALDH1A1, NADH fluorescence, propionaldehyde substrate; series mostly up to 75.3 µM
Potency means the concentration at half of the fitted maximal effect; tags describe the fitted curve by direction and shape.

For `COc1cccc(-c2cc(NCc3ccccc3)ncn2)c1`, which Potency is on record?
Its Potency is “inactive”.

How did the Potency turn out when `CCOC(=O)c1ccc(-n2c(CN3CCOCC3)nc3ccc([N+](=O)[O-])cc3c2=O)cc1` was run?
The Potency was inconclusive [inhibitor, single point].

For `O=C(N/N=C/c1ccc(C(=O)O)cc1)C1=NNC(c2ccccc2)(c2ccccc2)C1`, which Potency is on record?
Its Potency is inconclusive [inhibitor, single point].

For `Cc1cc(NC(=O)CSc2nc(CCC3CCCC3)nc3ccccc23)no1`, which Potency is on record?
The Potency was inconclusive [inhibitor, single point].

`COCC(=O)n1nc(-c2ccc(C)cc2)nc1NCc1ccc(F)cc1` was tested. Which Potency did it give?
The Potency was “inactive”.

`COc1ccc(N2CCN(c3cc(=O)n(Cc4ccc(F)cc4)c(=O)[nH]3)CC2)cc1` was tested. Which Potency did it give?
The Potency was inconclusive [inhibitor, partial curve].

For `c1ccc2c(C3=NNC(=NC4CCCCC4)SC3)c[nH]c2c1`, which Potency is on record?
Its Potency is inconclusive [inhibitor, partial curve].

How did the Potency turn out when `C(=N\Nc1nc2ccccc2[nH]1)/c1ccc2c(c1)OCO2` was run?
Its Potency is “inactive”.

Which Potency does the source give for `CCN(CC)c1ccc(CNc2nc3ccccc3n2CCN2CCOCC2)cc1` here?
Its Potency is inconclusive [inhibitor, single point].

`CCO[C@@H]1OC(C(=O)NCc2nc3ccccc3[nH]2)=C[C@H](C)[C@H]1CCCO` was tested. Which Potency did it give?
The Potency was “inactive”.

Which Potency does the source give for `Cc1ccc(-c2ccnc3nc(Sc4ncc(C(F)(F)F)cc4Cl)nn23)cc1` here?
Its Potency is inconclusive [inhibitor, partial curve].

For `Cc1cccc(N2C(=O)CC(Sc3ccccc3C(=O)O)C2=O)c1` (stereo not given), which Potency is on record?
The Potency was active: 5.01 µM.

Which Potency does the source give for `O=[N+]([O-])c1cc(C(F)(F)F)ccc1NCCc1c[nH]c2ccc(O)cc12` here?
Its Potency is “inactive”.

`Cn1cc(Cl)c(C(=O)NNC(=S)Nc2cccc(Cl)c2)n1` was tested. Which Potency did it give?
The Potency was inconclusive [inhibitor, single point].

For `CCOc1ccccc1N1CCN(CC(=O)Nc2cc(C)on2)CC1`, which Potency is on record?
The Potency was “inactive”.

Which Potency does the source give for `O=S(=O)(c1cccs1)N1CCC(CO)(Cc2ccc(Cl)cc2)CC1` here?
Its Potency is inconclusive [inhibitor, single point].

For `CCn1c(CSc2nc3ccccc3[nH]2)nc2cc(C(=O)O)ccc21`, which Potency is on record?
Its Potency is inconclusive [inhibitor, single point].

Which Potency does the source give for `O=C(CCS(=O)(=O)c1ccccc1)Nc1nccs1` here?
The Potency was inconclusive [inhibitor, single point].

Which Potency does the source give for `COc1cc(NC(=S)NC(=O)c2ccco2)ccc1NC(=O)C(C)C` here?
The Potency was “inactive”.

For `CCCC/C=C/C(NC(=O)c1ccc(C(=O)OC)cc1)c1ccccc1` (stereo not given), which Potency is on record?
Its Potency is inconclusive [inhibitor, partial curve].
